Data published in PubChem BioAssay AID504332 (National Center for Advancing Translational Sciences (NCATS), 2011).
In all, about 350,000 compounds went through this assay and about 31,000 (8.9%) were called active. Inconclusive means that the source gave no clear call. Such entries were picked first, then a sample of the others. Calls come from the whole dose curve; as a rule, active = well fitted inhibition curve with a large enough effect; inconclusive = small, poorly fitted or top-dose-only effect; inactive = no such curve, though single readings can be large or run the other way. A potency beside an inconclusive call is a rough fit, not a confirmed value.
% is set by controls: 0 for no effect and ±100 for the full control effect; potency is the fitted concentration of half-maximal effect; tags give direction and shape of the fitted curve.
Note: nearly all actives have a fitted effect of over 75% in size.

The compounds below were run against Histone-lysine N-methyltransferase EHMT2 (Homo sapiens) (UniProt Q96KQ7) (assay: qHTS Assay for Inhibitors of Histone Lysine Methyltransferase G9a). Details: G9a H3K9 monomethylation, AlphaScreen, 2 h; activity, negative = inhibition: at 59 µM (top of the series) unless noted.
Sequence of UniProt Q96KQ7 (Q96KQ7 whole entry, looked up): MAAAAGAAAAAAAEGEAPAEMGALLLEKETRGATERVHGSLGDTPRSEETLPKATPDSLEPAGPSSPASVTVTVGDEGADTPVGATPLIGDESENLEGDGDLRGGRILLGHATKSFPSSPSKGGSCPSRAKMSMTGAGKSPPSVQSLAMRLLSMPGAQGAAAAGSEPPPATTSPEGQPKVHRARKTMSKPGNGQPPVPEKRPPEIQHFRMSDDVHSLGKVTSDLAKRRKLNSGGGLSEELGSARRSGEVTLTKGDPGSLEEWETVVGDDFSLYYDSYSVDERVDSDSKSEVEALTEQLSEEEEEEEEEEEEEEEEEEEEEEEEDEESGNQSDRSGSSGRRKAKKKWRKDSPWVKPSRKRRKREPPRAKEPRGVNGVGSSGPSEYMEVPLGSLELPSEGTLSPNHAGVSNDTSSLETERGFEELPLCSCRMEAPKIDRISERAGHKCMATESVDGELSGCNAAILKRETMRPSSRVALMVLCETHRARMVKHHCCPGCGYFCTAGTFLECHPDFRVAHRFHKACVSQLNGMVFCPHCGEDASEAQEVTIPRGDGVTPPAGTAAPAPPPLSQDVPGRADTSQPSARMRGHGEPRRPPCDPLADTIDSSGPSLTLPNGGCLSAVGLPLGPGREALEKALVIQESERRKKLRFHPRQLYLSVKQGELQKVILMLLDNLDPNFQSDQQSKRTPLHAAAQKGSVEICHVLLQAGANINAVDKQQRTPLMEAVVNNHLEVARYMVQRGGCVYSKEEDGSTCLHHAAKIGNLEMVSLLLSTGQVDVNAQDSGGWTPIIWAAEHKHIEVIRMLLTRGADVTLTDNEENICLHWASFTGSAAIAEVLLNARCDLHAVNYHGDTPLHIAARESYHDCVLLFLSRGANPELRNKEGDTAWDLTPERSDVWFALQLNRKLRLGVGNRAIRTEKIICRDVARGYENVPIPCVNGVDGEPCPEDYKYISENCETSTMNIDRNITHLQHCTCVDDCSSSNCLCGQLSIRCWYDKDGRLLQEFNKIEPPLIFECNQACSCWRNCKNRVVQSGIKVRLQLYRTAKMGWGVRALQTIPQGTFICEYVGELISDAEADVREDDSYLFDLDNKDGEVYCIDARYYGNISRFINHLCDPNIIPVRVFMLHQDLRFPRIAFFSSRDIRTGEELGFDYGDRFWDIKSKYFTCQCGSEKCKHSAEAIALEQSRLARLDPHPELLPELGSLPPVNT
Summary of the method: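 Compounds were preincubated with 20 nM G9a for 15 min, after which biotinylated H3K9 peptide (500 nM) and SAM (20 uM) started a 2 h room-temperature reaction. Monomethylated product was quantified by antibody-based AlphaScreen chemiluminescence.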
For `O=C(COC(=O)C1=NN(c2ccccc2)C(=O)CC1)NCc1ccccc1Cl`, the activity, negative = inhibition was inactive: -8.19% [at 2.33 µM]. `Cc1[nH]c2ccc(C(=O)N3CCN(c4ccccc4Cl)CC3)cc2c1C` was tested, and the Potency was inconclusive: 89.1 µM [inhibitor, single point]. For `CCCCOc1ccc(-c2cn3ccccc3n2)cc1[N+](=O)[O-]`, the Potency was inconclusive: 7.08 µM [inhibitor, full curve]. With `O=C(c1cc(C(F)(F)F)cc(C(F)(F)F)c1)N1CCC2(CC1)CCN(c1ccncc1)CC2` the activity, negative = inhibition was inactive: 5.66% [at 12.7 µM]. In the case of `CN(Cc1ccccc1)c1nnc(N)s1`, the Potency is reported as inconclusive: 100 µM [inhibitor, single point]. `CCN(CC)CCN1C(=O)C(=O)/C(=C(/O)c2ccccc2)C1c1ccccc1F` (configuration not stated) was tested, and the Potency was inconclusive: 3.16 µM [inhibitor, full curve, poor fit]. For `O=C(c1ccc2c3c(cccc13)CC2)C1CCCN(C(=O)c2cccnc2)C1` (configuration not stated), the Potency was inconclusive: 35.5 µM [inhibitor, partial curve, poor fit]. For `Cc1ccccc1N1CCN(S(=O)(=O)c2nnc(NC(=O)c3ccc(C(C)C)cc3)s2)CC1`, the Potency was inconclusive: 28.2 µM [inhibitor, single point]. In the case of `Nc1c(C(=O)NCc2ccco2)sc2nc3c(cc12)C(=O)CCC3`, the Potency is reported as inconclusive: 6.31 µM [inhibitor, single point]. With `Cc1cccc(N(C)c2nc3ccccc3c3nnc(C)n23)c1` the Potency was inconclusive: 3.55 µM [inhibitor, partial curve, poor fit]. In the case of `CC1CN(S(=O)(=O)c2cccc(C(=O)OCCOc3ccccc3)c2)CC(C)O1` (configuration not stated), the activity, negative = inhibition is reported as inactive: 4.71% [at 12.7 µM]. With `Cc1ccccc1NC(=O)CC(NCc1cccnc1)C(=O)O` (configuration not stated) the Potency was inconclusive: 11.2 µM [inhibitor, partial curve, poor fit]. With `Cc1cc(C)cc(NC(=O)Cn2c(-c3cncs3)nc3ccccc32)c1` the Potency was inconclusive: 6.31 µM [inhibitor, single point]. For `NC(=O)c1ccccc1N/C=C/C(=O)c1ccco1`, the activity, negative = inhibition was inactive: -3.78% [at 12.7 µM]. With `COc1ccccc1-n1cc2c([N+](=O)[O-])cc([N+](=O)[O-])cc2n1` the Potency was active: 10 µM. With `Cc1cc(C(C)(C)C)cc(C)c1N` the Potency was “inactive”. For `O=C(NNC(=O)c1ccc(NC(=O)c2ccccc2)cc1)c1ccccc1`, the Potency was inconclusive: 50.1 µM [inhibitor, partial curve, poor fit]. With `Cc1onc(-c2ccccc2)c1C(=O)Nc1nnc(-c2ccncc2)s1` the Potency was inconclusive: 1.26 µM [inhibitor, partial curve, poor fit]. In the case of `Cc1ccc(-c2ccc(/C=N\NC(=O)C3C(=O)NCC3c3ccccc3)o2)cc1Cl` (configuration not stated), the Potency is reported as inconclusive: 10 µM [inhibitor, partial curve, poor fit]. `CCOC(=O)C1=C(COC(=O)Cc2ccc(Br)cc2)NC(=O)NC1C` (configuration not stated) was tested, and the Potency was inconclusive: 3.98 µM [inhibitor, partial curve, poor fit]. With `Cc1cc(C)n(-c2nc3ccccc3nc2Nc2ccc(N(C)C)cc2)n1` the Potency was active: 1.78 µM. With `Cc1c(O)c(=O)n(-c2ccccc2)n1C` the Potency was active: 8.91 µM. In the case of `COc1cccc(/C=C/C(=O)OCC(=O)Nc2ccc(N3CCOCC3)cc2)c1OC`, the Potency is reported as inconclusive: 79.4 µM [inhibitor, single point]. For `CN(C(=O)COC(=O)C(C)(C)Oc1ccc(Cl)cc1)c1c(N)n(Cc2ccccc2)c(=O)[nH]c1=O`, the Potency was inconclusive: 50.1 µM [inhibitor, partial curve, poor fit]. `FC(F)Oc1ccccc1C1CC(c2ccc(Br)s2)Nc2ncnn21` (configuration not stated) was tested, and the Potency was inconclusive: 2.51 µM [inhibitor, partial curve, poor fit]. In the case of `COc1ccc(S(=O)(=O)NNC(=O)c2cc3cc4ccccc4nc3s2)cc1`, the activity, negative = inhibition is reported as inconclusive: -58.6% [inhibitor] [at 12.7 µM]. For `Cc1ccc(S(=O)(=O)Nc2cc(Cl)c(O)cc2C)cc1`, the Potency was inconclusive: 17.8 µM [inhibitor, partial curve, poor fit]. `O=C(NCCC(=O)N1CCN(Cc2c(F)cccc2Cl)CC1)c1ccc(Cl)cc1` was tested, and the Potency was inconclusive: 1.41 µM [inhibitor, single point]. In the case of `CCc1ccc(CNC(=O)c2cnc3sc(N4CCCC4)nn3c2=O)cc1`, the Potency is reported as “inactive”. In the case of `CNCCCCOc1ccccc1-c1ccccc1`, the Potency is reported as inconclusive: 10 µM [inhibitor, partial curve, poor fit]. In the case of `CCOC(=O)c1c(N)ssc1=S`, the Potency is reported as active: 1 µM. In the case of `Cc1ccc(S(=O)(=O)Nc2cc3c4c(c2)CCN4C(=O)CC3)cc1`, the Potency is reported as “inactive”. For `Cc1ccccc1CNC(=O)c1ccc2c(c1)c(C)c(C)n2C`, the Potency was inconclusive: 39.8 µM [inhibitor, single point]. For `Cc1ccc(OCCN2C(=O)S/C(=C\c3ccc(C)o3)C2=O)cc1`, the Potency was active: 31.6 µM. In the case of `COc1cccc(CNS(=O)(=O)c2ccc3c(c2)C(C)(C)C(=O)N3C)c1`, the Potency is reported as “inactive”. In the case of `O=C(CN(CC1CCCO1)C(=O)CNS(=O)(=O)c1ccc(F)cc1)NCc1ccccc1` (configuration not stated), the Potency is reported as “inactive”. In the case of `Cc1cc(F)ccc1S(=O)(=O)NCC(c1cccnc1)N1CCc2ccccc21` (configuration not stated), the Potency is reported as inconclusive: 50.1 µM [inhibitor, partial curve, poor fit]. For `Cc1ccc(Cn2c(N3CCCCCC3)nc3c2c(=O)[nH]c(=O)n3C)cc1`, the Potency was “inactive”. With `Cc1cccc(-c2cc(=O)c(C(=O)O)cn2-c2ccc(F)cc2F)c1` the activity, negative = inhibition was inconclusive: -71.6% [inhibitor] [at 12.7 µM]. In the case of `COC(=O)NC(Nc1sc2c(c1C(N)=O)CCCC2)(C(=O)OC)C(F)(F)F` (configuration not stated), the Potency is reported as active: 11.2 µM. In the case of `CC(=O)Nc1ccc(Sc2ncccc2C(=O)Nc2cc(Cl)cc(Cl)c2)cn1`, the activity, negative = inhibition is reported as inconclusive: -110% [inhibitor]. `CCn1c2ccccc2c2cc(NC(=O)c3ccccc3-c3ccccc3C(=O)O)ccc21` was tested, and the Potency was inconclusive: 44.7 µM [inhibitor, single point]. For `O=C(Nc1ccc(S(=O)(=O)NC2=NCCCCC2)cc1)c1ccc2ccccc2n1`, the Potency was inconclusive: 44.7 µM [inhibitor, partial curve, poor fit]. `COc1cccc(C(=O)Nc2ccc(S(=O)(=O)NCc3ccco3)cc2)c1` was tested, and the Potency was inconclusive: 39.8 µM [inhibitor, single point]. With `COc1ccc(Nc2ccc3c(c2)=NC2(CCCCC2)[N+]=3[O-])cc1` the activity, negative = inhibition was inconclusive: -99.8% [inhibitor]. `CCOC(=O)C1(Cc2ccccc2)CCCN(C(=O)c2cnn(CC)c2)C1` (configuration not stated) was tested, and the Potency was “inactive”. `O=C1CCCN1CC(O)CS(=O)(=O)Cc1ccc(Cl)c(Cl)c1` (configuration not stated) was tested, and the activity, negative = inhibition was inactive: -6.73% [at 2.33 µM]. With `COc1ccc(/C=C2\Sc3ccc(C(=O)NCC4CCCO4)cc3N(C)C2=O)cc1` (configuration not stated) the Potency was active: 12.6 µM. `CC(Sc1nc2scc(-c3ccccc3)c2c(=O)[nH]1)C(=O)NC(N)=O` (configuration not stated) was tested, and the activity, negative = inhibition was inconclusive: -99.2% [inhibitor]. For `O=C(CSc1nnc(-c2ccncc2)n1-c1ccccc1Cl)Nc1ccc(C(=O)O)cc1`, the Potency was inconclusive: 7.08 µM [inhibitor, partial curve, poor fit]. For `CCc1cccc(NC(=O)COC(=O)c2cn(CC)c3nc(C)ccc3c2=O)c1`, the Potency was “inactive”. `CN=Cc1sc2ccccc2c1O` was tested, and the Potency was active: 50.1 µM. `COCCNC(=O)c1c[nH]c2ccc(S(=O)(=O)Nc3ccccc3F)cc2c1=O` was tested, and the Potency was inconclusive: 79.4 µM [inhibitor, single point]. In the case of `COC(=O)c1c(-c2ccccc2)csc1NC(=O)c1c(-c2ccccc2)noc1C`, the Potency is reported as inconclusive: 25.1 µM [inhibitor, single point]. For `COc1ccc(-c2ccc3c(N)c(C(=O)c4ccc(OC)c(OC)c4)sc3n2)cc1`, the Potency was active: 2.82 µM. For `O=[N+]([O-])c1ccccc1CNC(Cc1ccccc1)c1ccccc1` (configuration not stated), the Potency was inconclusive: 100 µM [inhibitor, single point]. In the case of `O=C(Nc1ccc(S(=O)(=O)Nc2ncccn2)cc1)c1ccc(S(=O)(=O)N2CCCC2)cc1`, the Potency is reported as inconclusive: 89.1 µM [inhibitor, partial curve, poor fit]. In the case of `C[N+]1(C2CCC3CCCC2C3O)CCCC1` (configuration not stated), the Potency is reported as inconclusive: 28.2 µM [inhibitor, single point]. `O=C1c2ccccc2NC(c2ccc(Cl)cc2Cl)N1Cc1ccccc1` (configuration not stated) was tested, and the Potency was inconclusive: 2.82 µM [inhibitor, partial curve, poor fit]. For `COc1cccc(-c2cc(C(F)(F)F)nc(-n3cncn3)n2)c1`, the Potency was inconclusive: 4.47 µM [inhibitor, single point]. In the case of `Nc1ncnc2nc(SCC(=O)Nc3ccccc3F)[nH]c12`, the Potency is reported as “inactive”. `Cc1cc(Nc2ccccc2)n(CCOC(=O)COc2ccccc2)n1` was tested, and the Potency was inconclusive: 12.6 µM [inhibitor, partial curve, poor fit]. With `COc1ccc(/C(O)=C2/C(=O)C(=O)N(Cc3cccnc3)C2c2ccncc2)cc1F` (configuration not stated) the activity, negative = inhibition was inconclusive: -79.2% [inhibitor]. For `CCOC(=O)c1sc(NC(=O)C(OC(C)=O)c2ccccc2)nc1C` (configuration not stated), the Potency was inconclusive: 11.2 µM [inhibitor, partial curve, poor fit]. With `COc1cc(CN2CCC(C(=O)NC3CCCC3)CC2)ccc1O` the Potency was inconclusive: 8.91 µM [inhibitor, single point]. `CCCN1CCN(c2ncnc3sc(C(=O)Nc4ccc(C(C)C)cc4)c(C)c23)CC1` was tested, and the Potency was inconclusive: 31.6 µM [inhibitor, partial curve, poor fit]. In the case of `CCOC(=O)/C(=N/Nc1ccccc1)N1CCCc2ccccc21`, the Potency is reported as inconclusive: 7.94 µM [inhibitor, partial curve, poor fit].
